# Experimental data reported in the supplement of paper PMC8728848.
# This is one part of the list.
# Tests used:
# Assay in all cases: glycan array binding signal (z-score within array); higher = stronger binding
# Details in all cases: glycan notation: IUPAC condensed, linker removed
# Fuc(a1-2)Gal = biological target: Fuc(a1-2)Gal
# In short: (§1)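 Columns mapping to the same glycan were averaged after glycan names were converted to IUPAC-condensed notation. The data come from 3228 arrays in the Consortium for Functional Glycomics database, limited to those with an available protein sequence. Binding is reported as a within-array Z-score averaged across arrays of one protein sequence and across linkers.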
# Fuc(a1-2)Gal(b1-3)GalNAc = biological target: Fuc(a1-2)Gal(b1-3)GalNAc
# In short: as §1
# [1] = biological target: Fuc(a1-2)Gal(b1-3)GalNAc(a1-3)[Fuc(a1-2)]Gal(b1-4)Glc
# In short: as §1
# [2] = biological target: Fuc(a1-2)Gal(b1-3)GalNAc(a1-3)[Fuc(a1-2)]Gal(b1-4)GlcNAc
# In short: as §1
# [3] = biological target: Fuc(a1-2)Gal(b1-3)GalNAc(b1-3)Gal
# In short: as §1
# [4] = biological target: Fuc(a1-2)Gal(b1-3)GalNAc(b1-3)Gal(a1-4)Gal(b1-4)Glc
# In short: as §1
# [5] = biological target: Fuc(a1-2)Gal(b1-3)GalNAc(b1-4)[Neu5Ac(a2-3)]Gal(b1-4)Glc
# In short: as §1
# Fuc(a1-2)Gal(b1-3)GlcNAc = biological target: Fuc(a1-2)Gal(b1-3)GlcNAc
# In short: as §1
# [6] = biological target: Fuc(a1-2)Gal(b1-3)GlcNAc(b1-2)Man(a1-3)[Fuc(a1-2)Gal(b1-3)GlcNAc(b1-2)Man(a1-6)]Man(b1-4)GlcNAc(b1-4)GlcNAc
# In short: as §1
# [7] = biological target: Fuc(a1-2)Gal(b1-3)GlcNAc(b1-2)Man(a1-3)[Fuc(a1-2)Gal(b1-3)GlcNAc(b1-2)Man(a1-6)]Man(b1-4)GlcNAc(b1-4)[Fuc(a1-6)]GlcNAc
# In short: as §1
# [8] = biological target: Fuc(a1-2)Gal(b1-3)GlcNAc(b1-3)Gal(b1-4)Glc
# In short: as §1
# [9] = biological target: Fuc(a1-2)Gal(b1-3)GlcNAc(b1-3)GalNAc
# In short: as §1
# [10] = biological target: Fuc(a1-2)Gal(b1-3)GlcNAc(b1-3)[Fuc(a1-2)Gal(b1-3)GlcNAc(b1-6)]GalNAc
# In short: as §1
# [11] = biological target: Fuc(a1-2)Gal(b1-3)GlcNAc(b1-3)[Gal(b1-4)GlcNAc(b1-6)]Gal(b1-4)Glc
# In short: as §1
# [12] = biological target: Fuc(a1-2)Gal(b1-3)GlcNAc(b1-3)[Gal(b1-4)[Fuc(a1-3)]GlcNAc(b1-6)]Gal(b1-4)Glc
# In short: as §1
# [13] = biological target: Fuc(a1-2)Gal(b1-3)GlcNAc(b1-3)[Neu5Ac(a2-6)Gal(b1-4)GlcNAc(b1-6)]Gal(b1-4)Glc
# In short: as §1
# [14] = biological target: Fuc(a1-2)Gal(b1-3)GlcNAc6S
# In short: as §1
# [15] = biological target: Fuc(a1-2)Gal(b1-3)[Fuc(a1-4)]GlcNAc
# In short: as §1
# [16] = biological target: Fuc(a1-2)Gal(b1-3)[Fuc(a1-4)]GlcNAc(b1-2)Man(a1-3)[Fuc(a1-2)Gal(b1-3)[Fuc(a1-4)]GlcNAc(b1-2)Man(a1-3)]Man(b1-4)GlcNAc(b1-4)GlcNAc
# In short: as §1
# [17] = biological target: Fuc(a1-2)Gal(b1-3)[Fuc(a1-4)]GlcNAc(b1-2)Man(a1-3)[Fuc(a1-2)Gal(b1-3)[Fuc(a1-4)]GlcNAc(b1-2)Man(a1-6)]Man(b1-4)GlcNAc(b1-4)GlcNAc
# In short: as §1
# [18] = biological target: Fuc(a1-2)Gal(b1-3)[Fuc(a1-4)]GlcNAc(b1-2)Man(a1-3)[Fuc(a1-2)Gal(b1-3)[Fuc(a1-4)]GlcNAc(b1-2)Man(a1-6)]Man(b1-4)GlcNAc(b1-4)[Fuc(a1-6)]GlcNAc(b1-4)[Fuc(a1-6)]GlcNAc
# In short: as §1
# [19] = biological target: Fuc(a1-2)Gal(b1-3)[Fuc(a1-4)]GlcNAc(b1-3)[Fuc(a1-3)[Gal(b1-4)]GlcNAc(b1-6)]Gal(b1-4)Glc
# In short: as §1
# [20] = biological target: Fuc(a1-2)Gal(b1-3)[Fuc(a1-4)]GlcNAc(b1-3)[Gal(b1-4)GlcNAc(b1-6)]Gal(b1-4)Glc
# In short: as §1
# [21] = biological target: Fuc(a1-2)Gal(b1-4)Fuc(a1-3)]GlcNAc(b1-2)Man(a1-3)[Fuc(a1-2)Gal(b1-4)[Fuc(a1-3)]GlcNAc(b1-2)Man(a1-6)]Man(b1-4)GlcNAc(b1-4)GlcNAc
# In short: as §1
# Fuc(a1-2)Gal(b1-4)Glc = biological target: Fuc(a1-2)Gal(b1-4)Glc
# In short: as §1
# Fuc(a1-2)Gal(b1-4)Glc6S = biological target: Fuc(a1-2)Gal(b1-4)Glc6S
# In short: as §1
# Fuc(a1-2)Gal(b1-4)GlcNAc = biological target: Fuc(a1-2)Gal(b1-4)GlcNAc
# In short: as §1
# [22] = biological target: Fuc(a1-2)Gal(b1-4)GlcNAc(b1-2)Man
# In short: as §1
# [23] = biological target: Fuc(a1-2)Gal(b1-4)GlcNAc(b1-2)Man(a1-3)[Fuc(a1-2)Gal(b1-4)GlcNAc(b1-2)Man(a1-6)]Man(b1-4)GlcNAc(b1-4)GlcNAc
# In short: as §1
# [24] = biological target: Fuc(a1-2)Gal(b1-4)GlcNAc(b1-2)Man(a1-3)[Fuc(a1-2)Gal(b1-4)GlcNAc(b1-2)Man(a1-6)]Man(b1-4)GlcNAc(b1-4)[Fuc(a1-6)]GlcNAc
# In short: as §1
binder,measurement,setting,value
"HPAIIITrx (Helix pomatia), Q1KM18 (protein) MLFVTIISLGLLAIVHGQCALKTIAFSAAIDREQTFDANQVVIYDIVITNHGNAYDNSTGLFTAPVDGMYSFQLNLLTIKEKEGWLELVHNGQLKVSVYAKQDSTYDSSSNSVIIKMKEGDRVNVRAHKKSGLFGRDDELYNTFSGHFLSGL",glycan array binding signal (z-score),Fuc(a1-2)Gal,-0.193
same,glycan array binding signal (z-score),Fuc(a1-2)Gal(b1-3)GalNAc,0.423
same,glycan array binding signal (z-score),[1],-0.232
same,glycan array binding signal (z-score),[2],0.09
same,glycan array binding signal (z-score),[3],2.9
same,glycan array binding signal (z-score),[4],0.822
same,glycan array binding signal (z-score),[5],-0.4
same,glycan array binding signal (z-score),Fuc(a1-2)Gal(b1-3)GlcNAc,0.164
same,glycan array binding signal (z-score),[6],3.03
same,glycan array binding signal (z-score),[7],-0.136
same,glycan array binding signal (z-score),[8],-0.184
same,glycan array binding signal (z-score),[9],-0.247
same,glycan array binding signal (z-score),[10],-0.117
same,glycan array binding signal (z-score),[11],-0.349
same,glycan array binding signal (z-score),[12],-0.143
same,glycan array binding signal (z-score),[13],-0.416
same,glycan array binding signal (z-score),[14],-0.244
same,glycan array binding signal (z-score),[15],0.614
same,glycan array binding signal (z-score),[16],0.629
same,glycan array binding signal (z-score),[17],3.07
same,glycan array binding signal (z-score),[18],-0.327
same,glycan array binding signal (z-score),[19],-0.503
same,glycan array binding signal (z-score),[20],-0.355
same,glycan array binding signal (z-score),[21],0.305
same,glycan array binding signal (z-score),Fuc(a1-2)Gal(b1-4)Glc,-0.056
same,glycan array binding signal (z-score),Fuc(a1-2)Gal(b1-4)Glc6S,-0.178
same,glycan array binding signal (z-score),Fuc(a1-2)Gal(b1-4)GlcNAc,-0.3
same,glycan array binding signal (z-score),[22],-0.136
same,glycan array binding signal (z-score),[23],-0.108
same,glycan array binding signal (z-score),[24],0.33
